Test results: US9474790B2, “Stable, protracted GLP-1/glucagon receptor co-agonists for medical use” (Novo Nordisk A/S, priority 2013, dated 2016)
At least one structure is not confirmed: it was looked up by name or label, or the drawing left a doubt. Numbered stars: 1 amine (or outer) side, 2 acyl side, 3 side chain; on linkers, the order of the positions; unused ones are H or OH. Square brackets hold non-standard residues; d marks the D form. Side chains are listed from the residue outwards. Peptide text beside a SMILES is read from it. * marks the point of attachment. C18 diacid = O=C(O)CCCCCCCCCCCCCCCCC(=O)*; γGlu = O=C(O)[C@H](CCC(=O)[*:2])N[*:1]; AEEA = NCCOCCOCC(=O)O; Aib = CC(C)(N)C(=O)O

Assay: Thioflavin T (ThT) fibrillation assay for physical stability
Assay type: physicochemical
Details: 250 μM in 10 mM HEPES buffer, pH 7.5, 37° C., shaking 960 rpm
Text: The purpose of this assay was to assess the physical stability of the glucagon derivatives of the invention in aqueous solutions.
Low physical stability of a peptide may lead to amyloid fibril formation, which is observed as well-ordered, thread-like macromolecular structures in the sample, which eventually may lead to gel formation. This has traditionally been measured by visual inspection of the sample. However, that kind of measurement is very subjective and depending on the observer. Therefore, the application of a small molecule indicator probe is much more advantageous. Thioflavin T (ThT) is such a probe and has a distinct fluorescence signature when binding to fibrils [Naiki et al; Anal. Biochem. 1989 177 244-249; LeVine; Methods. Enzymol. 1999 309 274-284].
The time course for fibril formation can be described by a sigmoidal curve with the following expression [Nielsen et al; Biochemistry 2001 40 6036-6046]:
Here, as depicted in FIG. 1, F is the ThT fluorescence at the time t. The constant t0 is the time needed to reach 50% of maximum fluorescence. The two important parameters describing fibril formation are the lag-time calculated by t0−2τ and the apparent rate constant kapp 1/τ.
Samples were prepared freshly before each assay. Each sample composition is described in the legends. The pH of the sample was adjusted to the desired value using appropriate amounts of concentrated NaOH and HCl. Thioflavin T was added to the samples from a stock solution in H2O to a final concentration of 1 μM.
Sample aliquots of 200 μl (250 μM of the glucagon derivative/analogue in 10 mM HEPES buffer, pH 7.5) were placed in a 96 well microtiter plate (Packard OptiPlate™-96, white polystyrene). Usually, four or eight replica of each sample (corresponding to one test condition) were placed in one column of wells. The plate was sealed with Scotch Pad (Qiagen).
Incubation at given temperature, shaking and measurement of the ThT fluorescence emission were done in a Fluoroskan Ascent FL fluorescence plate reader (Thermo Labsystems). The temperature was set to 37° C. and the plate was incubated with orbital shaking adjusted to 960 rpm with an amplitude of 1 mm. Fluorescence measurement was done using excitation through a 444 nm filter and measurement of emission through a 485 nm filter.
Each run was initiated by incubating the plate at the assay temperature for 10 min. The plate was measured every 20 minutes for a desired period of time. Between each measurement, the plate was shaken and heated as described.
After completion of the ThT assay the four or eight replica of each sample was pooled and centrifuged at 20000 rpm for 30 minutes at 18° C. The supernatant was filtered through a 0.22 μm filter and an aliquot was transferred to a HPLC vial.
The concentration of peptide in the initial sample and in the filtered supernatant was determined by reverse phase HPLC using an appropriate standard as reference. The percentage fraction the concentration of the filtered sample constituted of the initial sample concentration was reported as the recovery.
The measurement points were saved in Microsoft Excel format for further processing and curve drawing and fitting was performed using GraphPad Prism. The background emission from ThT in the absence of fibrils was negligible. The data points were typically a mean of four or eight samples.
The data set may be fitted to Eq. (1).

`CC(C)C[C@H](NC(=O)[C@H](Cc1ccc(O)cc1)NC(=O)[C@H](CCCCN)NC(=O)[C@H](CO)NC(=O)[C@H](CC(C)C)NC(=O)[C@H](CC(=O)O)NC(=O)[C@H](CO)NC(=O)[C@@H](NC(=O)[C@H](Cc1ccccc1)NC(=O)[C@@H](NC(=O)CNC(=O)[C@H](CCC(N)=O)NC(=O)C(C)(C)NC(=O)[C@@H](N)Cc1c[nH]cn1)[C@@H](C)O)[C@@H](C)O)C(=O)N[C@@H](CC(=O)O)C(=O)N[C@@H](CCCCNC(=O)CC[C@H](NC(=O)CC[C@H](NC(=O)COCCOCCNC(=O)COCCOCCNC(=O)CC[C@H](NC(=O)CCCCCCCCCCCCCCCCC(=O)O)C(=O)O)C(=O)O)C(=O)O)C(=O)N[C@@H](CCCNC(=N)N)C(=O)N[C@@H](CCCNC(=N)N)C(=O)N[C@@H](C)C(=O)N[C@@H](CCCNC(=N)N)C(=O)N[C@@H](CC(=O)O)C(=O)N[C@@H](Cc1ccccc1)C(=O)N[C@H](C(=O)N[C@@H](CCC(N)=O)C(=O)N[C@@H](Cc1c[nH]c2ccccc12)C(=O)N[C@@H](CC(C)C)C(=O)N[C@@H](CC(C)C)C(=O)N[C@@H](CO)C(=O)N[C@H](C(N)=O)[C@@H](C)O)C(C)C` [Example 1, N^ε16-[(4S)-4-carboxy-4-[[(4S)-4-carboxy-4-[[2-[2-[2-[[2-[2-[2-[[(4S)-4-carboxy-4-(17-carboxyheptadecanoylamino)butanoyl]amino]ethoxy]ethoxy]acetyl]amino]ethoxy]ethoxy]acetyl]amino]butanoyl]amino]butanoyl]-[Aib2,Leu10,Lys16,Arg20,Leu27,Ser28]-Glucagon amide] (H-H[Aib]QGTFTSDLSKYLDK([γGlu-γGlu-AEEA-AEEA-γGlu-C18 diacid])RRARDFVQWLLST-NH2; N-terminus assumed) and `CC(C)C[C@H](NC(=O)[C@H](Cc1ccc(O)cc1)NC(=O)[C@H](CCCCN)NC(=O)[C@H](CO)NC(=O)[C@H](CC(C)C)NC(=O)[C@H](CC(=O)O)NC(=O)[C@H](CO)NC(=O)[C@@H](NC(=O)[C@H](Cc1ccccc1)NC(=O)[C@@H](NC(=O)CNC(=O)[C@H](CCC(N)=O)NC(=O)C(C)(C)NC(=O)[C@@H](N)Cc1c[nH]cn1)[C@@H](C)O)[C@@H](C)O)C(=O)N[C@@H](CC(=O)O)C(=O)N[C@@H](CO)C(=O)N[C@@H](CCCNC(=N)N)C(=O)N[C@@H](CCCNC(=N)N)C(=O)N[C@@H](C)C(=O)N[C@@H](CCCNC(=N)N)C(=O)N[C@@H](CC(=O)O)C(=O)N[C@@H](Cc1ccccc1)C(=O)N[C@H](C(=O)N[C@@H](CCC(N)=O)C(=O)N[C@@H](Cc1c[nH]c2ccccc12)C(=O)N[C@@H](CC(C)C)C(=O)N[C@@H](CC(C)C)C(=O)N[C@@H](CCCCNC(=O)CC[C@H](NC(=O)CC[C@H](NC(=O)COCCOCCNC(=O)COCCOCCNC(=O)CC[C@H](NC(=O)CCCCCCCCCCCCCCCCC(=O)O)C(=O)O)C(=O)O)C(=O)O)C(=O)N[C@H](C(N)=O)[C@@H](C)O)C(C)C` [Example 4, N^ε28-[(4S)-4-carboxy-4-[[(4S)-4-carboxy-4-[[2-[2-[2-[[2-[2-[2-[[(4S)-4-carboxy-4-(17-carboxyheptadecanoylamino)butanoyl]amino]ethoxy]ethoxy]acetyl]amino]ethoxy]ethoxy]acetyl]amino]butanoyl]amino]butanoyl]-[Aib2,Leu10,Arg20,Leu27,Lys28]-Glucagon amide] (H-H[Aib]QGTFTSDLSKYLDSRRARDFVQWLLK([γGlu-γGlu-AEEA-AEEA-γGlu-C18 diacid])T-NH2; N-terminus assumed) are the same in THT assay Lag time (Ex. 76): 45 h for the first, 45 h for the second.

First: CC(C)C[C@H](NC(=O)[C@H](Cc1ccc(O)cc1)NC(=O)[C@H](CCCCN)NC(=O)[C@H](CO)NC(=O)[C@H](CC(C)C)NC(=O)[C@H](CC(=O)O)NC(=O)[C@H](CO)NC(=O)[C@@H](NC(=O)[C@H](Cc1ccccc1)NC(=O)[C@@H](NC(=O)CNC(=O)[C@H](CCC(N)=O)NC(=O)C(C)(C)NC(=O)[C@@H](N)Cc1c[nH]cn1)[C@@H](C)O)[C@@H](C)O)C(=O)N[C@@H](CC(=O)O)C(=O)N[C@@H](CO)C(=O)N[C@@H](CCCNC(=N)N)C(=O)N[C@@H](CCCNC(=N)N)C(=O)N[C@@H](C)C(=O)N[C@@H](CCCNC(=N)N)C(=O)N[C@@H](CCCCNC(=O)CC[C@H](NC(=O)CC[C@H](NC(=O)COCCOCCNC(=O)COCCOCCNC(=O)CC[C@H](NC(=O)CCCCCCCCCCCCCCCCC(=O)O)C(=O)O)C(=O)O)C(=O)O)C(=O)N[C@@H](Cc1ccccc1)C(=O)N[C@H](C(=O)N[C@@H](CCC(N)=O)C(=O)N[C@@H](Cc1c[nH]c2ccccc12)C(=O)N[C@@H](CC(C)C)C(=O)N[C@@H](CC(C)C)C(=O)N[C@@H](CO)C(=O)N[C@H](C(N)=O)[C@@H](C)O)C(C)C [Example 2] (H-H[Aib]QGTFTSDLSKYLDSRRARK([γGlu-γGlu-AEEA-AEEA-γGlu-C18 diacid])FVQWLLST-NH2; N-terminus assumed)
Second: CC(C)C[C@H](NC(=O)[C@H](Cc1ccc(O)cc1)NC(=O)[C@H](CCCCN)NC(=O)[C@H](CO)NC(=O)[C@H](CC(C)C)NC(=O)[C@H](CC(=O)O)NC(=O)[C@H](CO)NC(=O)[C@@H](NC(=O)[C@H](Cc1ccccc1)NC(=O)[C@@H](NC(=O)CNC(=O)[C@H](CCC(N)=O)NC(=O)C(C)(C)NC(=O)[C@@H](N)Cc1c[nH]cn1)[C@@H](C)O)[C@@H](C)O)C(=O)N[C@@H](CC(=O)O)C(=O)N[C@@H](CO)C(=O)N[C@@H](CCCNC(=N)N)C(=O)N[C@@H](CCCNC(=N)N)C(=O)N[C@@H](C)C(=O)N[C@@H](CCCNC(=N)N)C(=O)N[C@@H](CC(=O)O)C(=O)N[C@@H](Cc1ccccc1)C(=O)N[C@H](C(=O)N[C@@H](CCCCNC(=O)CC[C@H](NC(=O)CC[C@H](NC(=O)COCCOCCNC(=O)COCCOCCNC(=O)CC[C@H](NC(=O)CCCCCCCCCCCCCCCCC(=O)O)C(=O)O)C(=O)O)C(=O)O)C(=O)N[C@@H](Cc1c[nH]c2ccccc12)C(=O)N[C@@H](CC(C)C)C(=O)N[C@@H](CC(C)C)C(=O)N[C@@H](CO)C(=O)N[C@H](C(N)=O)[C@@H](C)O)C(C)C [Example 3, N^ε24-[(4S)-4-carboxy-4-[[(4S)-4-carboxy-4-[[2-[2-[2-[[2-[2-[2-[[(4S)-4-carboxy-4-(17-carboxyheptadecanoylamino)butanoyl]amino]ethoxy]ethoxy]acetyl]amino]ethoxy]ethoxy]acetyl]amino]butanoyl]amino]butanoyl]-[Aib2,Leu10,Arg20,Lys24,Leu27,Ser28]-Glucagon amide] (H-H[Aib]QGTFTSDLSKYLDSRRARDFVK([γGlu-γGlu-AEEA-AEEA-γGlu-C18 diacid])WLLST-NH2; N-terminus assumed)
The THT assay Lag time (Ex. 76) of the first is 6.4-fold lower: 7 h for the first, 45 h for the second.

With `CC(C)C[C@H](NC(=O)[C@H](CC(C)C)NC(=O)[C@H](Cc1c[nH]c2ccccc12)NC(=O)[C@H](CCC(N)=O)NC(=O)[C@@H](NC(=O)[C@H](Cc1ccccc1)NC(=O)[C@H](CC(=O)O)NC(=O)[C@H](CCCNC(=N)N)NC(=O)[C@H](C)NC(=O)[C@H](CCCNC(=N)N)NC(=O)[C@H](CCCNC(=N)N)NC(=O)[C@H](CO)NC(=O)[C@H](CC(=O)O)NC(=O)[C@H](CC(C)C)NC(=O)[C@H](Cc1ccc(O)cc1)NC(=O)[C@H](CCCCN)NC(=O)[C@H](CO)NC(=O)[C@H](CC(C)C)NC(=O)[C@H](CC(=O)O)NC(=O)[C@H](CO)NC(=O)[C@@H](NC(=O)[C@H](Cc1ccccc1)NC(=O)[C@@H](NC(=O)CNC(=O)[C@H](CCC(N)=O)NC(=O)C(C)(C)NC(=O)[C@@H](N)Cc1c[nH]cn1)[C@@H](C)O)[C@@H](C)O)C(C)C)C(=O)N[C@@H](CO)C(=O)N[C@@H](CCCCNC(=O)CC[C@H](NC(=O)CC[C@H](NC(=O)COCCOCCNC(=O)COCCOCCNC(=O)CC[C@H](NC(=O)CCCCCCCCCCCCCCCCC(=O)O)C(=O)O)C(=O)O)C(=O)O)C(N)=O` [Example 5, N^ε29-[(4S)-4-carboxy-4-[[(4S)-4-carboxy-4-[[2-[2-[2-[[2-[2-[2-[[(4S)-4-carboxy-4-(17-carboxyheptadecanoylamino)butanoyl]amino]ethoxy]ethoxy]acetyl]amino]ethoxy]ethoxy]acetyl]amino]butanoyl]amino]butanoyl]-[Aib2,Leu10,Arg20,Leu27,Ser28,Lys29]-Glucagon amide] (H-H[Aib]QGTFTSDLSKYLDSRRARDFVQWLLSK([γGlu-γGlu-AEEA-AEEA-γGlu-C18 diacid])-NH2; N-terminus assumed) the THT assay Lag time (Ex. 76) was 45 h.
